Experimental data: EP4197559A1, “IMMUNOMODULATORY PROTEIN-SIRNA COMPLEX HAVING ANTICANCER ACTIVITY” (Korea Institute of Science and Technology, priority 2020, dated 2022)

Biological target: T1, CD47 receptors on HT-29 cells (human-derived colon cancer cells) (human, UniProt Q08722 19-323)
T1 construct: whole, on cells
Test: confocal microscopy of HT-29 cells; uptake reduced by the CD47 antibody

binding result: binds
B1: fusion protein-siRNA complex prepared in Example 2 (SIRPα-CD47 siRNA) (other)
chain: EEELQIIQPDKSVLVAAGETATLRCTITSLFPVGPIQWFRGAGPGRVLIYNQRQGPFPRVTTVSDTTKRNNMDFSIRIGNITPADAGTYYCIKFRKGSPDDVEFKSGAGTELSVRAKPVDGGFLGGGGCG
modifications: CD47 siRNA (sense strand SEQ ID NO 17, antisense strand SEQ ID NO 18) bound 1:1 through maleimide at the 3'-end of the sense strand to the thiol group of the cysteine at the C-terminal end of the fusion protein
notes: Expressed in E. coli BL21 (DE3) from pet28a and purified by its His-tag; The protein was detected in cells with an FITC-labeled His-tag antibody; also called SIPRα-CD47 siRNA; immunoregulatory protein-siRNA complex
